# Assay results reported in publication PMC4336329 (PLoS ONE, 2015).
# Hit rate of the full screen: of about 310,000 compounds, about 14,000 (4.5%) showed an effect of 50% or more. The effect is printed as a negative number. The list shows a part of the results. Where a SMILES comes first, the peptide text is derived from it. The star is where a group is joined. Cbz = O=C(OCc1ccccc1)*
# Target: human ether-à-go-go-related gene (hERG) potassium channel (human, UniProt Q12809)
# Experiment: primary screen, population patch clamp on CHO cells stably expressing hERG
# 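Further: peak tail current of the secondary pulse compared with the same well before compound.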
# Sequence of human ether-à-go-go-related gene (hERG) potassium channel (Q12809 whole entry, looked up): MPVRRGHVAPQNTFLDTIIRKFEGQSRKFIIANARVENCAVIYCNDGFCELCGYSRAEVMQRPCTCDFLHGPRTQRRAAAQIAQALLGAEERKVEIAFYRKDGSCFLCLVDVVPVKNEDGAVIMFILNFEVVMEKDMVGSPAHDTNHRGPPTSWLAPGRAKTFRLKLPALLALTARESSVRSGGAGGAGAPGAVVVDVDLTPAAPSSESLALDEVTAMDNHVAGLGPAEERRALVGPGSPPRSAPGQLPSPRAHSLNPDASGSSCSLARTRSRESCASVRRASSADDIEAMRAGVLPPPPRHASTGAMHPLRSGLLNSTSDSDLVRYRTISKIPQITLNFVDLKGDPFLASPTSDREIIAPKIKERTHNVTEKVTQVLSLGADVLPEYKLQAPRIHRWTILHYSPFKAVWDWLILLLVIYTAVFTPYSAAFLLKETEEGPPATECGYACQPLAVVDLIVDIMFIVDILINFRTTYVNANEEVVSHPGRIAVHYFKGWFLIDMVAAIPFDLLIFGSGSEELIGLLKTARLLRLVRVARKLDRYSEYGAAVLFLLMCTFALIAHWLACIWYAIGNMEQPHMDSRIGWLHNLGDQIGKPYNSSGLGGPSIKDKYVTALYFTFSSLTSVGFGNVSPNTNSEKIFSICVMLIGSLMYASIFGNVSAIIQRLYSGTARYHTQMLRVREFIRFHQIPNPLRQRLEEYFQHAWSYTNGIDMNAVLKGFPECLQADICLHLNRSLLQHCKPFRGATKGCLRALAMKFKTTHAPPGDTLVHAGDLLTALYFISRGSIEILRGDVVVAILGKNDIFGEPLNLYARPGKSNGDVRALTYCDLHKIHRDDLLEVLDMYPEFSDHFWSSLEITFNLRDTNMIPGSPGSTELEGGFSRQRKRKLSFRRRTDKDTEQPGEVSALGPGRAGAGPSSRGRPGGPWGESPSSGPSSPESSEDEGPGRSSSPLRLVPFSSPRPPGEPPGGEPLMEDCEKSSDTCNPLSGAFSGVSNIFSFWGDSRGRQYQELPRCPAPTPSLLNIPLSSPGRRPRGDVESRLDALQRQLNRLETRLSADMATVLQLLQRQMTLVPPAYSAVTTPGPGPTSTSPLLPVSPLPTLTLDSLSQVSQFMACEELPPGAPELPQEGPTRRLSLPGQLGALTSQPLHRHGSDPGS
row,SMILES,"hERG current change (%, negative = inhibition) at 10uM"
1,Cn1ncc([N+](=O)[O-])c1C(=O)N/N=C/c1ccc(F)cc1,-9.05%
2,COc1ccc(Cc2nnc(SCC(=O)c3ccc(OC)cc3)o2)cc1,2.15%
3,Cc1c(C)n(Cc2ccccc2)c2ccc(C(=O)NCCCN3CCOCC3)cc12,-14.9%
4,Cc1cccc(NC(=S)Nc2ccccn2)c1C,2.01%
5,COCc1ccc(C(=O)N(C)CC2CCCN(CCc3ccc(Cl)cc3)C2)o1 (centres unmarked),-78.9%
6,O=S(=O)(Nc1cccc(-c2ccc3nncn3n2)c1)c1ccc(Cl)s1,-27.4%
7,CCN(CC)S(=O)(=O)c1ccc(OC)c(NS(=O)(=O)Cc2ccccc2)c1,-15%
8,O=C1N[C@@H](Cc2ccccc2)C(=O)N2[C@@H]1C[C@]1(Br)c3ccccc3N(S(=O)(=O)c3ccccc3)[C@H]21,-16.5%
9,CCn1c(=NC(=O)c2cccc(N3C(=O)CCC3=O)c2)sc2c(C)ccc(OC)c21,4.49%
10,CCCOc1ccc(-c2nc(OCC)c3ccccc3n2)cc1,1.62%
11,O=C(NC(=S)Nc1ccccc1N1CCOCC1)c1cccc([N+](=O)[O-])c1,17.6%
12,COc1cc(Cl)ccc1OCc1cc(C(=O)N2CC[C@@H]3CCCC[C@H]3C2)no1,15.4%
13,O=C(NCc1ccccn1)c1ccc(N2CCCC2)c([N+](=O)[O-])c1,-9.15%
14,CCc1ccccc1NC(=O)c1ccccc1Sc1ccc([N+](=O)[O-])cc1Cl,10.8%
15,O=C(O)c1cc(-c2cccs2)nc2ccc(F)cc12,13.2%
16,COC(=O)NNC(=O)COc1ccccc1C,11.3%
17,CCN1CCN(c2ccc(S(=O)(=O)N3CCCCC3)cc2NC(=O)Cc2c(Cl)cccc2Cl)CC1,-38.6%
18,C=CCC(C)(NCc1ccccc1)c1ccco1.Cl (centres unmarked),9.19%
19,Cn1c(=O)c2cc(S(=O)(=O)NCCC(=O)NC3CCCCCC3)ccc2n(C)c1=O,-6.68%

row,SMILES,"hERG current change (%, negative = inhibition) at 10uM"
1,COC(=O)C(C)(C(=O)OC)c1ccccc1[N+](=O)[O-],7.93%
2,COc1ccc(/C=N/NS(=O)(=O)c2ccc(C)cc2)cc1,11.1%
3,CCOC(=O)c1c(-n2cnnn2)sc(C)c1C,-6.65%
4,O=C(Nc1cccc2c1CCCC2)C1CCN(C(=O)NC2CCCCC2)CC1,6.54%
5,COc1ccc(NC(=O)CSc2n[nH]c(=O)n2C2CC2)cc1OC,9.93%
6,CC(=O)c1sc(-c2ccccc2)cc1N,5.23%
7,CCOc1ccc(/C=C/C(=O)c2ccccc2)cc1,7.44%
8,O=C(CCN1CCOCC1)Nc1ccc(Br)cc1C(=O)c1ccccc1,-19.6%
9,Cc1ccc2c(C)c(C(=O)NCCN3CCOC3=O)oc2c1C,0.131%
10,C/C(CC(=O)Nc1ccc(F)cc1)=N\NC(=O)COc1ccccc1,-23.4%
11,Cc1ccc(C(=O)Nc2cccnc2Oc2ccc(Cl)cc2)cc1,-9.13%
12,Cc1ccc2c(n1)sc1c(-c3ccc(Br)cc3)c(C#N)c(N)nc12,18.2%
13,COc1ccc(S(=O)(=O)NC(C)C(=O)Nc2ccc3c(c2)OCO3)cc1OC (centres unmarked),24.4%
14,COc1cc(-c2nnn(Cc3ccccc3C)n2)cc(OC)c1OC,3.67%
15,COc1ccccc1NC(=O)C(=O)N1CCCC1,14.9%
16,COc1ccc(CCn2c(O)c(C=NCCN3CCCCC3)c(=O)[nH]c2=O)cc1OC,-13.6%
17,CC1Sc2ccc(S(=O)(=O)CCC(=O)N3CCCC3)cc2NC1=O (centres unmarked),16.4%
18,Cc1cc(C(=O)NC2CCCc3c2cnn3-c2ccc(C(C)(C)C)cc2)nn1C (centres unmarked),10.9%
19,CN(C)C=O.Cc1ccc(S(=O)(=O)N(C)C)cc1NC(=S)Nc1ccc2[nH]c(=O)[nH]c2c1,76.2%

row,SMILES,"hERG current change (%, negative = inhibition) at 10uM"
1,Cc1ccc(S(=O)(=O)N(C)CC(=O)OCC(=O)Nc2ccccc2)cc1,14.5%
2,COC(=O)C1CCCN1C(=O)C1CCCN1C(=O)CNC(=O)OCc1ccccc1 (stereo not drawn) (Cbz-Gly-Pro-Pro-OMe; configuration not given here),12.3%
3,COc1ccc2c(c1)C(C)=CC(C)(C)N2C(=O)CN1C(=O)CCC1=O,-3.34%
4,CCOC(=O)c1c(-c2ccccc2)csc1NC(=O)c1cc(-c2ccccc2OC)on1,-1%
5,Cc1ccnc(N2C(=O)C3C4CC(C(Br)C4Br)C3C2=O)c1 (centres unmarked),15.1%
6,COc1ccc(C(C(=O)NCc2ccccc2)N(Cc2ccco2)C(=O)c2cnccn2)cc1 (centres unmarked),-16.1%
7,Cn1c(CSCc2ccccc2Cl)nnc1SCC(=O)Nc1nccs1,-12.3%
8,COc1ccccc1CNC(=O)CSc1nc(=O)n(Cc2ccncc2)c2c1CCC2,3.68%
9,Cc1ccc(C)c(C(=O)COc2ccccc2[N+](=O)[O-])c1,1.88%
10,Cc1ccc(S(=O)(=O)N2CCCCC2C(=O)O)s1 (centres unmarked),20.8%
11,Cc1ccc(C)c(NC(=S)NC(C)C(c2cccs2)N2CCOCC2)c1 (centres unmarked),8.4%
12,Cc1ccc(S(=O)(=O)N2CCCCC2)cc1NC(=O)CN1CC=C(c2ccccc2)CC1,-12.5%
13,COc1ccccc1CC(=O)Nc1ccc2c(c1)CCC2,18.9%
14,O=C(Nc1ccnc(-c2cccnc2)n1)c1ccc(Cl)cc1,-17.6%
15,CCCCOC(=O)c1cc(C)nc2ccc(Br)cc12,10.7%
16,Cc1nnc(SCC(=O)N2CCOCC2)[nH]c1=O,-1.12%
17,O=C(Nc1cccc(Cl)c1)c1cnn2cccnc12,7.19%
18,O=C(Nc1ccc(-c2nc3ccccc3o2)cc1)C1CCCO1 (centres unmarked),-6.36%
